# Experimental data: paper PMC12820563
# This is one part of the list. The list includes weakly bound sequences.
# Biological target: T1, MBP-FoxP3dN (UniProt Q99JB6)
# T1 sequence: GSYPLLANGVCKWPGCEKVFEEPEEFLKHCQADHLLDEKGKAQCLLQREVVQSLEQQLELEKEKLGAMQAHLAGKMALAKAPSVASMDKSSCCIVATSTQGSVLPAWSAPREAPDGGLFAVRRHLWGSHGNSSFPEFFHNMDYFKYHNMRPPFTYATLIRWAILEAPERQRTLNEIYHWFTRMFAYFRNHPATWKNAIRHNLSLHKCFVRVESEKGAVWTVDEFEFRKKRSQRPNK
# Experiment: PD-seq (MBP pull-down with sequencing)
# Conditions: 20 mM Tris-HCl pH 7.5, 100 mM NaCl, 1.5 mM MgCl2, 0.4 uM protein, 0.1 uM dsDNA library, 30 min, room temperature, amylose pull-down; high values mean tight binding; double strand, one strand shown
row,Sequence,binding signal (RPM ratio (pull-down/input))
1,GATGATTGTTCTCCCAGCTGATGAATTCGTTGCCTCGAGTAAACAAATTTTCCTAATCTTTCTGTTCAAGCGCCATCTAC,2.64
2,GATGATTGTTCTCCCAGCTGATGAATTTGCAGGTTCGAGTAAACAAATTTTCCTAATCTTTCTGTTCAAGCGCCATCTAC,0.591
3,GATGATTGTTCTCCCAGCTGATGAATTGATTCTCTCGAGTAAACAAATTTTCCTAATCTTTCTGTTCAAGCGCCATCTAC,0.395
4,GATGATTGTTCTCCCAGCTGATGAATTTTACGTTTCGAGTAAACAAATTTTCCTAATCTTTCTGTTCAAGCGCCATCTAC,0.363
5,GATGATTGTTCTCCCAGCTGATGAATTCAATCTCTCGAGTAAACAAATTTTCCTAATCTTTCTGTTCAAGCGCCATCTAC,0.362
6,GATGATTGTTCTCCCAGCTGATGAATTTTGGCTCTCGAGTAAACAAATTTTCCTAATCTTTCTGTTCAAGCGCCATCTAC,0.475
7,GATGATTGTTCTCCCAGCTGATGAATTGGGAAGGTCGAGTAAACAAATTTTCCTAATCTTTCTGTTCAAGCGCCATCTAC,0.234
8,GATGATTGTTCTCCCAGCTGATGAATTTCTCCTCTCGAGTAAACAAATTTTCCTAATCTTTCTGTTCAAGCGCCATCTAC,0.237
9,GATGATTGTTCTCCCAGCTGATGAATTACATAGTTCGAGTAAACAAATTTTCCTAATCTTTCTGTTCAAGCGCCATCTAC,0.624
10,GATGATTGTTCTCCCAGCTGATGAATTCTCCTTATCGAGTAAACAAATTTTCCTAATCTTTCTGTTCAAGCGCCATCTAC,0.246
11,GATGATTGTTCTCCCAGCTGATGAATTTTGGGGTTCGAGTAAACAAATTTTCCTAATCTTTCTGTTCAAGCGCCATCTAC,0.546
12,GATGATTGTTCTCCCAGCTGATGAATTGATTCACTCGAGTAAACAAATTTTCCTAATCTTTCTGTTCAAGCGCCATCTAC,0.463
13,GATGATTGTTCTCCCAGCTGATGAATTGGTACGATCGAGTAAACAAATTTTCCTAATCTTTCTGTTCAAGCGCCATCTAC,0.349
14,GATGATTGTTCTCCCAGCTGATGAATTCAGAGCGTCGAGTAAACAAATTTTCCTAATCTTTCTGTTCAAGCGCCATCTAC,0.387
15,GATGATTGTTCTCCCAGCTGATGAATTAGACTTATCGAGTAAACAAATTTTCCTAATCTTTCTGTTCAAGCGCCATCTAC,0.621
16,GATGATTGTTCTCCCAGCTGATGAATTATAACTTTCGAGTAAACAAATTTTCCTAATCTTTCTGTTCAAGCGCCATCTAC,0.542
17,GATGATTGTTCTCCCAGCTGATGAATTATCTCGCTCGAGTAAACAAATTTTCCTAATCTTTCTGTTCAAGCGCCATCTAC,0.31
18,GATGATTGTTCTCCCAGCTGATGAATTTCATACCTCGAGTAAACAAATTTTCCTAATCTTTCTGTTCAAGCGCCATCTAC,0.402
19,GATGATTGTTCTCCCAGCTGATGAATTAAACACGTCGAGTAAACAAATTTTCCTAATCTTTCTGTTCAAGCGCCATCTAC,0.54
20,GATGATTGTTCTCCCAGCTGATGAATTGAGCTTGTCGAGTAAACAAATTTTCCTAATCTTTCTGTTCAAGCGCCATCTAC,2.61
21,GATGATTGTTCTCCCAGCTGATGAATTTGCTCGATCGAGTAAACAAATTTTCCTAATCTTTCTGTTCAAGCGCCATCTAC,0.337

row,Sequence,binding signal (RPM ratio (pull-down/input))
1,GATGATTGTTCTCCCAGCTGATGAATTACTTTGCTCGAGTAAACAAATTTTCCTAATCTTTCTGTTCAAGCGCCATCTAC,0.707
2,GATGATTGTTCTCCCAGCTGATGAATTTTAGCTATCGAGTAAACAAATTTTCCTAATCTTTCTGTTCAAGCGCCATCTAC,0.721
3,GATGATTGTTCTCCCAGCTGATGAATTCGCACCTTCGAGTAAACAAATTTTCCTAATCTTTCTGTTCAAGCGCCATCTAC,0.466
4,GATGATTGTTCTCCCAGCTGATGAATTGGCATCGTCGAGTAAACAAATTTTCCTAATCTTTCTGTTCAAGCGCCATCTAC,1.77
5,GATGATTGTTCTCCCAGCTGATGAATTAAGCGGTTCGAGTAAACAAATTTTCCTAATCTTTCTGTTCAAGCGCCATCTAC,0.596
6,GATGATTGTTCTCCCAGCTGATGAATTCTCTATATCGAGTAAACAAATTTTCCTAATCTTTCTGTTCAAGCGCCATCTAC,0.286
7,GATGATTGTTCTCCCAGCTGATGAATTGAATGTCTCGAGTAAACAAATTTTCCTAATCTTTCTGTTCAAGCGCCATCTAC,0.895
8,GATGATTGTTCTCCCAGCTGATGAATTTCTTGGCTCGAGTAAACAAATTTTCCTAATCTTTCTGTTCAAGCGCCATCTAC,0.329
9,GATGATTGTTCTCCCAGCTGATGAATTTCCTCCGTCGAGTAAACAAATTTTCCTAATCTTTCTGTTCAAGCGCCATCTAC,0.214
10,GATGATTGTTCTCCCAGCTGATGAATTACCATTGTCGAGTAAACAAATTTTCCTAATCTTTCTGTTCAAGCGCCATCTAC,0.538
11,GATGATTGTTCTCCCAGCTGATGAATTATACACATCGAGTAAACAAATTTTCCTAATCTTTCTGTTCAAGCGCCATCTAC,1.12
12,GATGATTGTTCTCCCAGCTGATGAATTCGGACATTCGAGTAAACAAATTTTCCTAATCTTTCTGTTCAAGCGCCATCTAC,0.826
13,GATGATTGTTCTCCCAGCTGATGAATTAAGACTCTCGAGTAAACAAATTTTCCTAATCTTTCTGTTCAAGCGCCATCTAC,1.63
14,GATGATTGTTCTCCCAGCTGATGAATTTCGAAGCTCGAGTAAACAAATTTTCCTAATCTTTCTGTTCAAGCGCCATCTAC,0.272
15,GATGATTGTTCTCCCAGCTGATGAATTCGGATTTTCGAGTAAACAAATTTTCCTAATCTTTCTGTTCAAGCGCCATCTAC,0.506
16,GATGATTGTTCTCCCAGCTGATGAATTGTTCGTTTCGAGTAAACAAATTTTCCTAATCTTTCTGTTCAAGCGCCATCTAC,0.601
17,GATGATTGTTCTCCCAGCTGATGAATTTCCAGTTTCGAGTAAACAAATTTTCCTAATCTTTCTGTTCAAGCGCCATCTAC,0.259
18,GATGATTGTTCTCCCAGCTGATGAATTCTTAGGATCGAGTAAACAAATTTTCCTAATCTTTCTGTTCAAGCGCCATCTAC,0.184
19,GATGATTGTTCTCCCAGCTGATGAATTTATCATGTCGAGTAAACAAATTTTCCTAATCTTTCTGTTCAAGCGCCATCTAC,2.48
20,GATGATTGTTCTCCCAGCTGATGAATTATTCCGCTCGAGTAAACAAATTTTCCTAATCTTTCTGTTCAAGCGCCATCTAC,0.26
21,GATGATTGTTCTCCCAGCTGATGAATTTCCAAGTTCGAGTAAACAAATTTTCCTAATCTTTCTGTTCAAGCGCCATCTAC,0.196

row,Sequence,binding signal (RPM ratio (pull-down/input))
1,GATGATTGTTCTCCCAGCTGATGAATTTTATTCATCGAGTAAACAAATTTTCCTAATCTTTCTGTTCAAGCGCCATCTAC,0.639
2,GATGATTGTTCTCCCAGCTGATGAATTGGTAGTCTCGAGTAAACAAATTTTCCTAATCTTTCTGTTCAAGCGCCATCTAC,1.18
3,GATGATTGTTCTCCCAGCTGATGAATTAGAGCCCTCGAGTAAACAAATTTTCCTAATCTTTCTGTTCAAGCGCCATCTAC,0.358
4,GATGATTGTTCTCCCAGCTGATGAATTCTTCCCTTCGAGTAAACAAATTTTCCTAATCTTTCTGTTCAAGCGCCATCTAC,0.198
5,GATGATTGTTCTCCCAGCTGATGAATTATCGCCATCGAGTAAACAAATTTTCCTAATCTTTCTGTTCAAGCGCCATCTAC,2.38
6,GATGATTGTTCTCCCAGCTGATGAATTTCAAGATTCGAGTAAACAAATTTTCCTAATCTTTCTGTTCAAGCGCCATCTAC,0.21
7,GATGATTGTTCTCCCAGCTGATGAATTATTTGGTTCGAGTAAACAAATTTTCCTAATCTTTCTGTTCAAGCGCCATCTAC,1.08
8,GATGATTGTTCTCCCAGCTGATGAATTGGGTCCTTCGAGTAAACAAATTTTCCTAATCTTTCTGTTCAAGCGCCATCTAC,0.337
9,GATGATTGTTCTCCCAGCTGATGAATTCAGTGGATCGAGTAAACAAATTTTCCTAATCTTTCTGTTCAAGCGCCATCTAC,0.52
10,GATGATTGTTCTCCCAGCTGATGAATTGACAAGTTCGAGTAAACAAATTTTCCTAATCTTTCTGTTCAAGCGCCATCTAC,0.38
11,GATGATTGTTCTCCCAGCTGATGAATTGAATTCGTCGAGTAAACAAATTTTCCTAATCTTTCTGTTCAAGCGCCATCTAC,0.487
12,GATGATTGTTCTCCCAGCTGATGAATTTAGCCAGTCGAGTAAACAAATTTTCCTAATCTTTCTGTTCAAGCGCCATCTAC,1.81
13,GATGATTGTTCTCCCAGCTGATGAATTAAATAGATCGAGTAAACAAATTTTCCTAATCTTTCTGTTCAAGCGCCATCTAC,0.331
14,GATGATTGTTCTCCCAGCTGATGAATTAGTACTCTCGAGTAAACAAATTTTCCTAATCTTTCTGTTCAAGCGCCATCTAC,0.792
15,GATGATTGTTCTCCCAGCTGATGAATTAGACCAATCGAGTAAACAAATTTTCCTAATCTTTCTGTTCAAGCGCCATCTAC,0.29
16,GATGATTGTTCTCCCAGCTGATGAATTGTGACCATCGAGTAAACAAATTTTCCTAATCTTTCTGTTCAAGCGCCATCTAC,0.94
17,GATGATTGTTCTCCCAGCTGATGAATTGTTCACTTCGAGTAAACAAATTTTCCTAATCTTTCTGTTCAAGCGCCATCTAC,0.429
18,GATGATTGTTCTCCCAGCTGATGAATTGCCTGCATCGAGTAAACAAATTTTCCTAATCTTTCTGTTCAAGCGCCATCTAC,1.55
19,GATGATTGTTCTCCCAGCTGATGAATTCAGATAGTCGAGTAAACAAATTTTCCTAATCTTTCTGTTCAAGCGCCATCTAC,0.424
20,GATGATTGTTCTCCCAGCTGATGAATTGTTACCGTCGAGTAAACAAATTTTCCTAATCTTTCTGTTCAAGCGCCATCTAC,0.724
21,GATGATTGTTCTCCCAGCTGATGAATTTGAGTTGTCGAGTAAACAAATTTTCCTAATCTTTCTGTTCAAGCGCCATCTAC,1.46
